This sample is rich in variants without activity.
B1: TPR 5TU (parent)
chain: GGAUCUUCUCGAUCUAACAAAAAAGACAAAUCUGCCACAAAGCUUGAGAGCAUCUUCGGAUGCAGAGGCGGCAGCCUUCGGUGGCGCGAUAGCGCCAACGUUCUCAACUAUGACACGCAAAACGCGUGCUCCGUUGAAUGGAGUUUAUCAUG

Variants of: B1
Experiment: polymerase ribozyme fitness, log enrichment relative to wild type (log ratio); higher = more active; in vitro selection for triplet polymerase activity
Method in brief: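 One round of in vitro selection, in triplicate, was applied to PCR-built, transcribed mutant libraries of each subunit of a heterodimeric triplet polymerase ribozyme. The steps were annealing with a biotinylated primer, partner subunit and triplets, incubation frozen at −7 °C, gel excision of extended constructs, streptavidin-bead capture and RT-PCR. Fitness is the logarithm, base 2, of genotype enrichment over wild-type enrichment from inverse-variance-weighted replicate averages of Illumina-sequenced inputs and outputs, keeping genotypes with ≥10 input reads and ≥1 read per output.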

Question: For A20G U45A C57U C116A, which “polymerase ribozyme fitness (log ratio)” value is on record?
Answer: ≤ -4.2

Question: With A20G U53A U78G G84U C99U as the variant, how does the “polymerase ribozyme fitness (log ratio)” value read?
Answer: ≤ -4.2

Question: With A20G U55A G74U C85U A97U as the variant, how does the “polymerase ribozyme fitness (log ratio)” value read?
Answer: ≤ -4.2

Question: Which “polymerase ribozyme fitness (log ratio)” value does the source give for A20G U55A U56A A73G U101A A107U here?
Answer: ≤ -4.2

Question: Which “polymerase ribozyme fitness (log ratio)” value does the source give for A20G U61A G112A U127A A137U here?
Answer: ≤ -4.2

Question: Which “polymerase ribozyme fitness (log ratio)” value does the source give for A20U A21C A23U G25U C32G G48A A66C C79G G128U U148G here?
Answer: ≤ -4.2

Question: Which “polymerase ribozyme fitness (log ratio)” value does the source give for A20U A21U A26G A89G C96A U145A A150G here?
Answer: ≤ -4.2

Question: Which “polymerase ribozyme fitness (log ratio)” value does the source give for A20U A22C G48A A73U C114G G141C here?
Answer: ≤ -4.2

Question: With A20U A22U A24U A91C A106C as the variant, how does the “polymerase ribozyme fitness (log ratio)” value read?
Answer: ≤ -4.2

Question: For A20U A22U A121U G128A C129U A137C A138C, which “polymerase ribozyme fitness (log ratio)” value is on record?
Answer: ≤ -4.2

Question: Which “polymerase ribozyme fitness (log ratio)” value does the source give for A20U A23G C35G C54A A60U G92A A115U here?
Answer: ≤ -4.2

Question: With A20U A23G G88A C99G C149G as the variant, how does the “polymerase ribozyme fitness (log ratio)” value read?
Answer: ≤ -4.2

Question: With A20U A23U C35U A37C G50A C76G A89C as the variant, how does the “polymerase ribozyme fitness (log ratio)” value read?
Answer: ≤ -4.2

Question: For A20U A24C A39U U53A C57G C96U A106U G117A, which “polymerase ribozyme fitness (log ratio)” value is on record?
Answer: ≤ -4.2

Question: Which “polymerase ribozyme fitness (log ratio)” value does the source give for A20U A24G C32G U78A G83C here?
Answer: ≤ -4.2

Question: Which “polymerase ribozyme fitness (log ratio)” value does the source give for A20U A26C A37U C69A A91U C93A here?
Answer: ≤ -4.2

Question: With A20U A26C A40G C87A A91G as the variant, how does the “polymerase ribozyme fitness (log ratio)” value read?
Answer: ≤ -4.2

Question: Which “polymerase ribozyme fitness (log ratio)” value does the source give for A20U A26C A47U U56C A60G G92U C132U here?
Answer: ≤ -4.2

Question: Which “polymerase ribozyme fitness (log ratio)” value does the source give for A20U A26U A52C C57U A60G C76A G88A C118U here?
Answer: ≤ -4.2

Question: With A20U A28C C36U C43U A73C C93A as the variant, how does the “polymerase ribozyme fitness (log ratio)” value read?
Answer: ≤ -4.2

Question: With A20U A28G A29G A41G C95U A115U U144A U145A as the variant, how does the “polymerase ribozyme fitness (log ratio)” value read?
Answer: ≤ -4.2

Question: For A20U A28U C96G, which “polymerase ribozyme fitness (log ratio)” value is on record?
Answer: ≤ -4.2

Question: For A20U A28U G42C G86U C93A C114U, which “polymerase ribozyme fitness (log ratio)” value is on record?
Answer: -4.17

Question: For A20U A29G G48C A49C G117A U134G A137C U139A, which “polymerase ribozyme fitness (log ratio)” value is on record?
Answer: ≤ -4.2

Question: With A20U A29U C43U A47G A49C C54G C95U C105A U145G A147G as the variant, how does the “polymerase ribozyme fitness (log ratio)” value read?
Answer: ≤ -4.2

Question: Which “polymerase ribozyme fitness (log ratio)” value does the source give for A20U A29U U55A A66C A106U A138U here?
Answer: ≤ -4.2

Question: With A20U A30G C54G G59A G86A A89G U90G as the variant, how does the “polymerase ribozyme fitness (log ratio)” value read?
Answer: ≤ -4.2

Question: With A20U A37U C43U U53G A107G G143U as the variant, how does the “polymerase ribozyme fitness (log ratio)” value read?
Answer: ≤ -4.2

Question: With A20U A39C as the variant, how does the “polymerase ribozyme fitness (log ratio)” value read?
Answer: -3.84

Question: Which “polymerase ribozyme fitness (log ratio)” value does the source give for A20U A39U C51A G94C A98U C103A here?
Answer: ≤ -4.2

Question: For A20U A41G G70C C103A, which “polymerase ribozyme fitness (log ratio)” value is on record?
Answer: ≤ -4.2

Question: For A20U A41U G83U A89C C96G A150U, which “polymerase ribozyme fitness (log ratio)” value is on record?
Answer: -2.06

Question: Which “polymerase ribozyme fitness (log ratio)” value does the source give for A20U A47C U55A C57U G71A A89G U90G C103A C132A G143C here?
Answer: ≤ -4.2

Question: Which “polymerase ribozyme fitness (log ratio)” value does the source give for A20U A47U C87U A110G U135A here?
Answer: ≤ -4.2

Question: Which “polymerase ribozyme fitness (log ratio)” value does the source give for A20U A49C C57U A115G here?
Answer: ≤ -4.2

Question: For A20U A52G G58A C76G G81A G86A A122C, which “polymerase ribozyme fitness (log ratio)” value is on record?
Answer: ≤ -4.2

Question: For A20U A52G G67A C93G, which “polymerase ribozyme fitness (log ratio)” value is on record?
Answer: ≤ -4.2

Question: With A20U A64C G84U as the variant, how does the “polymerase ribozyme fitness (log ratio)” value read?
Answer: ≤ -4.2

Question: With A20U A73G C85G G88U as the variant, how does the “polymerase ribozyme fitness (log ratio)” value read?
Answer: ≤ -4.2

Question: For A20U A89U, which “polymerase ribozyme fitness (log ratio)” value is on record?
Answer: -2.12

Question: Which “polymerase ribozyme fitness (log ratio)” value does the source give for A20U A107U A122U here?
Answer: ≤ -4.2

Question: Which “polymerase ribozyme fitness (log ratio)” value does the source give for A20U C27G G59C G84C C99G C105G here?
Answer: ≤ -4.2

Question: For A20U C35A A41C C95U U145A, which “polymerase ribozyme fitness (log ratio)” value is on record?
Answer: ≤ -4.2

Question: Which “polymerase ribozyme fitness (log ratio)” value does the source give for A20U C35U C76U C87G G141C U151C here?
Answer: ≤ -4.2

Question: Which “polymerase ribozyme fitness (log ratio)” value does the source give for A20U C35U G81U C93A G94U here?
Answer: ≤ -4.2

Question: Which “polymerase ribozyme fitness (log ratio)” value does the source give for A20U C36U A49C G68U U102G G141A here?
Answer: ≤ -4.2

Question: Which “polymerase ribozyme fitness (log ratio)” value does the source give for A20U C38A A41G C51A C85A U90G C114U here?
Answer: ≤ -4.2

Question: For A20U C51U G83A C93G C96U C103A C105A, which “polymerase ribozyme fitness (log ratio)” value is on record?
Answer: ≤ -4.2

Question: For A20U C51U U127G U145C, which “polymerase ribozyme fitness (log ratio)” value is on record?
Answer: ≤ -4.2

Question: Which “polymerase ribozyme fitness (log ratio)” value does the source give for A20U C54A here?
Answer: -2.02

Question: For A20U C54A C96G C108G U109G C118G C132A G143A U148A C149U, which “polymerase ribozyme fitness (log ratio)” value is on record?
Answer: ≤ -4.2

Question: With A20U C54G C87U A115G C149U as the variant, how does the “polymerase ribozyme fitness (log ratio)” value read?
Answer: ≤ -4.2

Question: With A20U C54G C93U A110U C129G as the variant, how does the “polymerase ribozyme fitness (log ratio)” value read?
Answer: ≤ -4.2

Question: For A20U C57A G84U, which “polymerase ribozyme fitness (log ratio)” value is on record?
Answer: -3.17

Question: For A20U C57U, which “polymerase ribozyme fitness (log ratio)” value is on record?
Answer: -2.23

Question: With A20U C63A G84U C87U as the variant, how does the “polymerase ribozyme fitness (log ratio)” value read?
Answer: -3.3

Question: For A20U C72U C85A U134C A150C, which “polymerase ribozyme fitness (log ratio)” value is on record?
Answer: ≤ -4.2

Question: With A20U C75A G86C U109G A122U U145A as the variant, how does the “polymerase ribozyme fitness (log ratio)” value read?
Answer: ≤ -4.2

Question: With A20U C93G A122U C131A U151G as the variant, how does the “polymerase ribozyme fitness (log ratio)” value read?
Answer: ≤ -4.2

Question: Which “polymerase ribozyme fitness (log ratio)” value does the source give for A20U G25C G141A here?
Answer: -4.03

Question: For A20U G42C C75A C105U C116U A120G G128A U146A, which “polymerase ribozyme fitness (log ratio)” value is on record?
Answer: ≤ -4.2

Question: Which “polymerase ribozyme fitness (log ratio)” value does the source give for A20U G42U U55G G62A here?
Answer: ≤ -4.2

Question: Which “polymerase ribozyme fitness (log ratio)” value does the source give for A20U G46C U56A C96U U135C A147G here?
Answer: ≤ -4.2

Question: Which “polymerase ribozyme fitness (log ratio)” value does the source give for A20U G48A G50A C76G C96G U135G here?
Answer: ≤ -4.2

Question: Which “polymerase ribozyme fitness (log ratio)” value does the source give for A20U G58A A60C U77A G84A here?
Answer: ≤ -4.2

Question: For A20U G58C U77A C95U C105U, which “polymerase ribozyme fitness (log ratio)” value is on record?
Answer: ≤ -4.2

Question: Which “polymerase ribozyme fitness (log ratio)” value does the source give for A20U G59A G68U U82G G83C C93G A120G here?
Answer: ≤ -4.2

Question: For A20U G86U A115C C118U A120G A137G U148A, which “polymerase ribozyme fitness (log ratio)” value is on record?
Answer: ≤ -4.2

Question: Which “polymerase ribozyme fitness (log ratio)” value does the source give for A20U G88U here?
Answer: ≤ -4.2

Question: With A20U U31C U109G as the variant, how does the “polymerase ribozyme fitness (log ratio)” value read?
Answer: -0.957

Question: With A20U U44A C54A G74A C85G A91U U104A G136A as the variant, how does the “polymerase ribozyme fitness (log ratio)” value read?
Answer: ≤ -4.2

Question: Which “polymerase ribozyme fitness (log ratio)” value does the source give for A20U U44G G46A G59C C96A A115C here?
Answer: ≤ -4.2

Question: With A20U U53G U55A U78A C93U A142C U148C as the variant, how does the “polymerase ribozyme fitness (log ratio)” value read?
Answer: ≤ -4.2

Question: Which “polymerase ribozyme fitness (log ratio)” value does the source give for A20U U55A A91U C96U A110G U151C here?
Answer: ≤ -4.2

Question: For A20U U55A C93A C95U, which “polymerase ribozyme fitness (log ratio)” value is on record?
Answer: ≤ -4.2

Question: Which “polymerase ribozyme fitness (log ratio)” value does the source give for A20U U55A U77C C96A G124C here?
Answer: ≤ -4.2

Question: For A20U U55G G58C A121U G128A A142C, which “polymerase ribozyme fitness (log ratio)” value is on record?
Answer: ≤ -4.2

Question: With A20U U56A C76U G133A as the variant, how does the “polymerase ribozyme fitness (log ratio)” value read?
Answer: ≤ -4.2

Question: For A20U U56A C85G A91U, which “polymerase ribozyme fitness (log ratio)” value is on record?
Answer: ≤ -4.2

Question: For A20U U61A, which “polymerase ribozyme fitness (log ratio)” value is on record?
Answer: -2.43

Question: With A20U U61A C72A C75U C93G C99A C131G as the variant, how does the “polymerase ribozyme fitness (log ratio)” value read?
Answer: ≤ -4.2

Question: Which “polymerase ribozyme fitness (log ratio)” value does the source give for A20U U82A C93U U145G here?
Answer: -2.69

Question: For A21C A22C C36A G48C A91U C99G, which “polymerase ribozyme fitness (log ratio)” value is on record?
Answer: ≤ -4.2

Question: For A21C A22C G25U A29U A60C A66C U148A A150C, which “polymerase ribozyme fitness (log ratio)” value is on record?
Answer: ≤ -4.2

Source: the RNAGym collection of RNA variant scans (doi:10.1073/pnas.2313332121)
